Assay results taken from PubChem BioAssay AID504332 (National Center for Advancing Translational Sciences (NCATS), 2011).
Out of some 350,000 compounds screened, about 31,000 (8.9%) were called active. This list was built around the results that the source calls inconclusive (neither active nor inactive); the mix of calls is not that of the screen. Calls follow the shape of the dose curve; as a rule, active = well fitted inhibition curve with a large enough effect; inconclusive = small, poorly fitted or top-dose-only effect; inactive = no such curve, though single readings can be large or run the other way. Potencies beside an inconclusive call are fits to weak or partial responses and may not hold up.

target: Histone-lysine N-methyltransferase EHMT2 (Homo sapiens) (UniProt Q96KQ7); test: qHTS Assay for Inhibitors of Histone Lysine Methyltransferase G9a; conditions: G9a H3K9 monomethylation, AlphaScreen, 2 h; activity, negative = inhibition: at 59 µM (top of the series) unless noted; also: nearly all actives have a fitted effect of over 75% in size
Summary of the method: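 Compounds were preincubated with 20 nM G9a for 15 min, after which biotinylated H3K9 peptide (500 nM) and SAM (20 uM) started a 2 h room-temperature reaction. Monomethylated product was quantified by antibody-based AlphaScreen chemiluminescence.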
% is scaled to controls: 0 for no effect and ±100 for the full control effect; potency is read from the fitted curve at half-maximal effect; tags tell the direction and shape of the fitted curve.

UniProt Q96KQ7, sequence (Q96KQ7 whole entry, looked up): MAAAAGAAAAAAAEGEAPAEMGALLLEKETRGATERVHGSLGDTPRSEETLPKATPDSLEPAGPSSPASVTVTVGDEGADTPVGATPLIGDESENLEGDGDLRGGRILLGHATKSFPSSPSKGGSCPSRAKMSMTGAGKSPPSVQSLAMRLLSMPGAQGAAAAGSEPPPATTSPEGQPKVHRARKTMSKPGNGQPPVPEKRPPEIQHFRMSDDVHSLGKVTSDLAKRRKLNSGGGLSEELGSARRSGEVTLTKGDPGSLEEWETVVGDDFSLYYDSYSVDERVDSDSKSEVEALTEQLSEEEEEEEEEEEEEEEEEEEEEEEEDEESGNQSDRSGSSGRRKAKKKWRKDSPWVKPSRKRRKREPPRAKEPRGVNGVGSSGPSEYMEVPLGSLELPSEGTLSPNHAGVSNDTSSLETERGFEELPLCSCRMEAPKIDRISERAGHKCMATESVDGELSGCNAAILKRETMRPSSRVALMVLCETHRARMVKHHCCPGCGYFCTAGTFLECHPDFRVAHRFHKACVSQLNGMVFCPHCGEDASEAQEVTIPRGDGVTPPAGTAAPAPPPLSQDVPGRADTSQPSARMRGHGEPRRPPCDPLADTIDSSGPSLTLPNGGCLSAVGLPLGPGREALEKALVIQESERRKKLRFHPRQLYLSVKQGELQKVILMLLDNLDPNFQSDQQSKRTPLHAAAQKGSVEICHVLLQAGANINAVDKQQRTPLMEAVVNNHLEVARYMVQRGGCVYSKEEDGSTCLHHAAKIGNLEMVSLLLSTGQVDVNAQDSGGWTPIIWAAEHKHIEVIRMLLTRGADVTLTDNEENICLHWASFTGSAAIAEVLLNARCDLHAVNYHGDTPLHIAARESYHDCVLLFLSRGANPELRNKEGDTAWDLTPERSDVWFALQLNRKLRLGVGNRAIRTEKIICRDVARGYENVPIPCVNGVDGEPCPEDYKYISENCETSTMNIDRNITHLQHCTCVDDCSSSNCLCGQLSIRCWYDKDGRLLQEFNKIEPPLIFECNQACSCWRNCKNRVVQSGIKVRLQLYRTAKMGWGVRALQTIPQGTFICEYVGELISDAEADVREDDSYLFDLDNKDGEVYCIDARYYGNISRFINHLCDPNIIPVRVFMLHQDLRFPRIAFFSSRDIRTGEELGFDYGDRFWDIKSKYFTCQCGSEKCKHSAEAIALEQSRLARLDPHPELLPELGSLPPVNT

**Q.** How did the Potency turn out when `COC(=O)c1c(N2C(=O)[C@H]3[C@@H](C2=O)[C@]2(C(=O)Nc4c(C)cccc42)N2CCC[C@@H]32)sc(C)c1C` was run?
**A.** The Potency was inconclusive: 39.8 µM [inhibitor, single point].

**Q.** How did the Potency turn out when `Cc1cccc(Cn2c(SCc3ccc(C(=O)NCCc4ccccc4)cc3)nc3ccncc32)c1` was run?
**A.** Its Potency is inconclusive: 3.16 µM [inhibitor, partial curve, poor fit].

**Q.** For `COc1ccc(-n2c(=O)c3c(c4cc(OC)ccc4n3C)n(Cc3cccc(OC)c3)c2=O)cc1`, which Potency is on record?
**A.** The Potency was “inactive”.

**Q.** With `O=C(CCC1N=C2c3ccccc3N=C(SCc3ccc(F)cc3)N2C1=O)NCc1ccc(F)cc1` (stereo not given) as the compound, how does the Potency read?
**A.** The Potency was “inactive”.

**Q.** How did the Potency turn out when `CC1CCN(CCCOc2ccc(Cl)cc2Br)CC1` was run?
**A.** Its Potency is active: 20 µM.

**Q.** For `Cn1cnc(S(=O)(=O)NCc2ccccc2)c1`, which Potency is on record?
**A.** The Potency was “inactive”.

**Q.** Which Potency does the source give for `CCOc1[nH]n(-c2ccccc2)c(=O)c1C=Nc1ccc(OC)cc1` here?
**A.** Its Potency is inconclusive: 17.8 µM [inhibitor, full curve].

**Q.** How did the Potency turn out when `COc1ccc(CCNC(=O)c2cc(=O)[nH]c3ccccc23)cc1` was run?
**A.** Its Potency is “inactive”.

**Q.** With `CCc1ccccc1NC(=O)CNC(=O)c1ccc(-n2cncn2)c([N+](=O)[O-])c1` as the compound, how does the Potency read?
**A.** The Potency was “inactive”.

**Q.** `O=C(CN1CCN(c2ccc(O)cc2)CC1)Nc1ccc2c(c1)OCCO2` was tested. Which Potency did it give?
**A.** The Potency was active: 7.94 µM.

**Q.** With `CSc1cccc(NC(=S)N(CCC(C)C)C(C)c2ccncc2)c1` (stereo not given) as the compound, how does the activity, negative = inhibition read?
**A.** The activity, negative = inhibition was inconclusive: -52.9% [inhibitor].

**Q.** For `O=c1c(=NNc2ccccc2Cl)c(=O)c2ccccc12`, which Potency is on record?
**A.** The Potency was inconclusive: 89.1 µM [inhibitor, single point].

**Q.** How did the Potency turn out when `COc1ccc(C2C(C(=O)NCCN(C)C)c3ccccc3C(=O)N2C)cc1OC` (stereo not given) was run?
**A.** Its Potency is inconclusive: 79.4 µM [inhibitor, partial curve, poor fit].

**Q.** For `O=c1sc2ccccc2c(=O)n1Cc1ccccc1F`, which Potency is on record?
**A.** Its Potency is “inactive”.

**Q.** With `CCOc1ccc(C(=O)NCCn2cc(SCC(=O)Nc3ccc4c(c3)OCCO4)c3ccccc32)cc1` as the compound, how does the Potency read?
**A.** Its Potency is inconclusive: 28.2 µM [inhibitor, partial curve, poor fit].

**Q.** How did the Potency turn out when `CCOc1ccc(-c2nc(CSCC(=O)N3CCN(c4ccc(F)cc4)CC3)c(C)o2)cc1` was run?
**A.** The Potency was inconclusive: 12.6 µM [inhibitor, partial curve, poor fit].

**Q.** For `CCN(CC(=O)Nc1ccc(NC(C)=O)cc1)C(=O)c1cc2c(s1)CCCC2`, which activity, negative = inhibition is on record?
**A.** Its activity, negative = inhibition is inactive: -11.1% [at 12.7 µM].

**Q.** How did the Potency turn out when `CCC(C(=O)Nc1cc(OC)cc(OC)c1)n1nc(-c2ccc(C)c(C)c2)ccc1=O` (stereo not given) was run?
**A.** The Potency was inconclusive: 8.91 µM [inhibitor, partial curve, poor fit].

**Q.** How did the Potency turn out when `COc1ccc(CC(=O)NNC(=O)c2cc(Cl)ccc2OC)cc1` was run?
**A.** The Potency was inconclusive: 89.1 µM [inhibitor, single point].

**Q.** `O=C1C(=O)N(CCN2CCOCC2)C(c2cccc(Cl)c2)/C1=C(/O)c1ccc2c(c1)OCO2` (stereo not given) was tested. Which Potency did it give?
**A.** The Potency was inconclusive: 89.1 µM [inhibitor, single point].

**Q.** Which Potency does the source give for `O=C(NNc1cc(Br)c(O)c(Br)c1)c1ccccc1` here?
**A.** The Potency was active: 5.01 µM.

**Q.** `CC(OC(=O)CCC(=O)c1cccs1)C(=O)Nc1ccccc1[N+](=O)[O-]` (stereo not given) was tested. Which Potency did it give?
**A.** Its Potency is inconclusive: 39.8 µM [inhibitor, full curve].

**Q.** How did the Potency turn out when `COCCCNc1oc(/C=C/c2cc(OC)c(OC)c(OC)c2)nc1C#N` was run?
**A.** The Potency was “inactive”.

**Q.** For `Cc1nc(NS(=O)(=O)c2ccc(Cl)s2)c2c3c(sc2n1)CCCC3`, which Potency is on record?
**A.** Its Potency is active: 50.1 µM.

**Q.** Which Potency does the source give for `O=C(Nc1ccc(S(=O)(=O)Nc2ccccn2)cc1)c1cccc([N+](=O)[O-])c1` here?
**A.** Its Potency is inconclusive: 79.4 µM [inhibitor, single point].

**Q.** Which Potency does the source give for `CCOc1ccc(C(=O)CCN2CCCCCC2)cc1` here?
**A.** The Potency was active: 5.01 µM.

**Q.** `O=C(/C=C/c1cccc(O)c1)c1ccc(N2CCOCC2)cc1` was tested. Which Potency did it give?
**A.** The Potency was inconclusive: 35.5 µM [inhibitor, partial curve, poor fit].

**Q.** How did the Potency turn out when `Cc1ccc(Oc2c(C(F)(F)F)oc3c(CN4CCC(C)CC4)c(O)ccc3c2=O)cc1` was run?
**A.** The Potency was “inactive”.

**Q.** How did the Potency turn out when `Cc1nc2cc(-c3ccsc3-n3c(C)ccc3C)[nH]n2c(=O)c1Cl` was run?
**A.** Its Potency is inconclusive: 22.4 µM [inhibitor, single point].

**Q.** `COc1ccc2c(CC(=O)Nc3nnc(C4CC4)s3)coc2c1` was tested. Which Potency did it give?
**A.** The Potency was “inactive”.

**Q.** How did the Potency turn out when `N#C/C(=C(/O)c1cccs1)c1nnc2n1CCCCC2` was run?
**A.** Its Potency is inconclusive: 56.2 µM [inhibitor, partial curve, poor fit].

**Q.** How did the Potency turn out when `Cc1cccc(CCNC(=O)c2ccc3c(c2)N(Cc2ccccc2F)C(=O)c2ccccc2S3)c1` was run?
**A.** Its Potency is “inactive”.

**Q.** For `CCC(=O)Nc1nc2ccccc2n1Cc1ccccc1C`, which Potency is on record?
**A.** Its Potency is inconclusive: 1.41 µM [inhibitor, single point].

**Q.** For `COc1cccc(S(=O)(=O)N2CCN(C(=O)c3ccco3)CC2)c1`, which Potency is on record?
**A.** The Potency was inconclusive: 44.7 µM [inhibitor, single point].

**Q.** How did the Potency turn out when `CCOC(=O)C(CC)Sc1nc2c(c(=O)[nH]c(=O)n2C)n1CCc1ccccc1` (stereo not given) was run?
**A.** The Potency was “inactive”.

**Q.** How did the activity, negative = inhibition turn out when `CCC(C)c1ccccc1N1CC(C(=O)NCCCn2nc(C)cc2C)CC1=O` (stereo not given) was run?
**A.** The activity, negative = inhibition was inactive: 14.4% [at 2.33 µM].

**Q.** Which Potency does the source give for `O=C(Nc1ccccc1-c1ccccc1)c1ccco1` here?
**A.** Its Potency is “inactive”.

**Q.** For `O=C(CCCCCBr)N1CCC(CC2CC(c3cccc(Br)c3)=NO2)(C(=O)NCC2CCCCC2)CC1` (stereo not given), which Potency is on record?
**A.** Its Potency is active: 50.1 µM.

**Q.** How did the Potency turn out when `CCOc1ccccc1/C=c1\sc2ncnn2c1=O` was run?
**A.** The Potency was inconclusive: 79.4 µM [inhibitor, single point].

**Q.** For `Cc1[nH]n(CCC#N)c(=O)c1CC(=O)N1CCN(c2ccccc2)CC1`, which Potency is on record?
**A.** The Potency was inconclusive: 39.8 µM [inhibitor, single point].

**Q.** With `CCOC(=O)C1=C(c2ccccc2)NC(SCC(=O)Nc2ccccc2C)=C(C#N)C1c1ccco1` (stereo not given) as the compound, how does the Potency read?
**A.** Its Potency is inconclusive: 2.82 µM [inhibitor, full curve].

**Q.** Which Potency does the source give for `Cc1[nH]nc(-c2ccc(O)c(C)c2O)c1Oc1ccccc1` here?
**A.** The Potency was inconclusive: 89.1 µM [inhibitor, single point].

**Q.** `O=C(O)c1ccc(S(=O)(=O)c2ccccc2C(=O)O)c([N+](=O)[O-])c1` was tested. Which Potency did it give?
**A.** The Potency was inconclusive: 50.1 µM [inhibitor, partial curve, poor fit].

**Q.** With `Cc1ccn2cc(-c3ccc(NS(=O)(=O)c4ccccc4)cc3)nc2c1` as the compound, how does the Potency read?
**A.** The Potency was inconclusive: 22.4 µM [inhibitor, single point].

**Q.** For `CC(=O)c1ccc(NC(=S)N2CCCCCC2)cc1`, which Potency is on record?
**A.** Its Potency is “inactive”.
